The values that follow come from PubChem BioAssay AID2060493 (Molecular Pharmacology Branch, DTP, NCI, 2025).

In the test the test system is 616215-338-R-J1-PDC tumor spheroids, viability. Put plainly: Anticancer human tumor 616215-338-R-J1-PDC patient-derived colon adenocarcinoma cell line growth inhibition [GQUAD]. The conditions noted are these: spheroids with HUVEC and MSC; for viability, T/C: stronger effect = lower value. The text has this: DNA G-quadruplex Stabilizer Agents in Combinations in Complex Spheroids
A high-throughput screen of multi-cell type tumor spheroids was designed to identify active combinations of DNA G-quadruplex stabilizer agents and targeted small molecules. Complex spheroids include a stromal component modeled by human endothelial cells (HUVEC) and fibroblasts modeled by human mesenchymal stem cells (MSCs). The concentration ranges selected for each drug and investigational agent were based upon clinically achievable concentrations if the clinical Cmax of the agent was known.
Compounds. The drugs and investigational agents: pidnarulex (CX-5461; NSC782164), APTO-253 (NSC789042), BRACO-19 (NSC847499), peposertib (NSC802822), ceralasertib (NSC780249), elimusertib (NSC800525), camonsertib (NSC841442), AZD-1390 (NSC803789), olaparib (NSC753686), talazoparib (NSC767125), ART-558 (NSC835418), sotorasib (NSC818433), MRTX-1133 (NSC836407), SN-38 (NSC673596), topotecan (NSC609699), etoposide (NSC141540), doxorubicin (NSC123127), gemcitabine (NSC613327), 5-fluorouracil (NSC19893), paclitaxel (NSC125973), vemurafenib (NSC761431), panobinostat (NSC761190), R-306465 (JNJ-16241199; NSC773264), adavosertib (NSC754352), TP-3654 (NSC805149), carboplatin (NSC241240), KSQ-4279 (NSC840948), and staurosporine (NSC755774) were obtained from the National Cancer Institute (NCI) Developmental Therapeutics Program Chemical Repository (34). The FDA-approved anticancer drug set is available from the NCI Developmental Therapeutics Program. […] The stock solutions were prepared in dimethyl sulfoxide (DMSO, Sigma-Aldrich, St. Louis, MO, cat. D2650) at 800-fold the tested concentration and stored at -70 degrees C prior to their use. All drugs and investigational agents were tested over a range starting from a high concentration at or near the clinical Cmax and decreasing in half-log increments. If the clinical Cmax for an agent had not been determined, the highest concentration tested was 10 microM.
2.3 Cell Culture. All cells were maintained in an incubator at 37 degrees C and 5% CO2 with 95% humidity. The PDC lines were cultured according to standard operating procedures established by the NCI PDMR. All PDCs were thawed and cultured in Matrigel-coated flasks prepared with a working solution of 1X Ham's F-12 nutrient mix, without supplementation (Invitrogen, cat. 11765054), 100 U/mL penicillin-streptomycin (Invitrogen, cat. 15140122), and 2.5% Matrigel (Corning Inc., cat. 354248) for the first three passages. […]

A number of entries come with more than one value. This is not the full list of results. There may be further records. Values that stand side by side repeat one measurement (runs, samples, wells, individuals or studies). Marks such as (2×) count equal records among those shown.
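Also: spheroids exposed to agents for 7 days before readout.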
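For viability, T/C in this document: percent viability relative to DMSO vehicle control wells taken as 100%.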

Broadly, the viability, T/C is the result in the treated group divided by that in the control group, in per cent. The IC50 is the concentration that inhibits the measured activity by half. Take `Cc1cnc(CNC(=O)c2c(=O)c3ccc(N4CCCN(C)CC4)nc3n3c2sc2ccccc23)cn1`: the viability, T/C (compound alone 0.1 µM) was 85.6, 87.3 (2×), 69.2, 67.4, 65.6, 74.6, 70, 61, 57.3, 58.7, 82.9%; the viability, T/C (compound alone 0.316 µM) was 49.2, 40.2, 49.6, 65.9, 48.5, 45.1, 38.7, 38.2 (2×), 55.1, 46, 57.4%; the viability, T/C (compound alone 1 µM) is 40, 50.4, 59.5, 40.5, 29.7, 31.6, 26.8, 34.9, 37.4, 30.8, 29.9, 22.8%. The IC50 (compound alone, run of 04/16/2024) is listed as 377, 250, 653, 548, 300, 232, 223, 212, 288, 160, 211, 348 nM.
